Measured values from ChEMBL document CHEMBL4888484, “Replenishing the malaria drug discovery pipeline: Screening and hit evaluation of the MMV Hit Generation Library 1 (HGL1) against asexual blood stage Plasmodium falciparum ,using a nano luciferase reporter read-out” (2022).
The campaign covered roughly 150,000 compounds. About 540 (0.36%) showed an effect of 50% or more. The list shows a part of the results.

system: Plasmodium falciparum; experiment: Primary screen in NF54 nanoGlo assay, in single point, at 2uM, 72h; a lower Z score goes with more inhibition; type: functional, Erythrocyte; conditions: timepoint 72 hour

SMILES	% Inhibition	Z score
CCc1nn(CC(=O)N[C@@H](COc2ccc(OC)cc2)C(C)C)c(=O)c2ccccc12	-1%	0.26
Cc1cc(NC(=O)Cn2ccc(-c3scnc3C)n2)n(C)n1	1%	-0.12
Cc1ccc(CN2CCc3nc(N4CCN(C)CC4)nc(Oc4ccc(F)cc4)c3C2)cc1	-7%	0.82
CN(C)C(=O)N1CC[C@](c2nnnn2C2CCCC2)(N(C)C)C1	-10%	1.29
C[C@H](NC(=O)CC1CCCCC1)C(=O)N(C)Cc1cscn1	-10%	1.83
CC(C)(C)CC(=O)N1CCN2[C@@H](C1)CN(S(=O)(=O)c1ccccc1)CC2(C)C	5%	-0.61
O=S(=O)(C1CCCCC1)N1CC[C@@H](O)C1	10%	-1.28
Cc1ccc(NCCc2ccc(Cl)cc2)nn1	-7%	1.04
C[C@@H](C1CC1)n1cc(NS(=O)(=O)C2CC2)cn1	13%	-1.55
CCc1noc(-c2cccnc2-n2cnc(C(=O)NCc3ccccc3F)c2)n1	35%	-3.92
CCO[C@@H](C)c1nc(CN(C)c2nc(C)nc(C)c2C)cs1	-9%	1
COc1cc(N2CCC[C@@]3(CCC(=O)N(Cc4ccccn4)C3)C2)nc(N)n1	7%	-1.05
CCCc1nc(-c2cc3cccc(C)c3nc2NC2CCCC2)no1	-8%	1.27
Cc1cccc(C(=O)NCc2nc([C@H]3CC(=O)N(Cc4ccccc4)C3)no2)c1	-13%	1.42
Cc1ccc(C)c(-c2cn3c(C(=O)N[C@@H](C)c4n[nH]c(C)n4)csc3n2)c1	-16%	1.57
Cc1cc(C(=O)NCCc2noc(C(C)C)n2)cc(C)n1	-10%	2.01
CCN1C(=O)[C@@H](NC(=O)C(=O)NCc2cccnc2)c2cc(Br)ccc21	-12%	1.28
Cc1nc(CNC(=O)N(C2CC2)[C@@H](C)C(C)C)sc1C	-11%	0.9
COc1ccc(Nc2nc(Nc3ccc(OC)cc3)nc(N3CCN(c4ccccc4)CC3)n2)cc1	-18%	2.36
Cc1noc(C)c1Cn1nc2n(c1=O)C(=O)N(c1cccc(Cl)c1)C2	7%	-1.4
CCCN(CC(F)F)C(=O)[C@H](C)NC(=O)c1ccoc1	4%	-0.51
Cc1ccc(OS(=O)(=O)c2ccc3c(c2)NC(=O)CO3)c(Br)c1	-5%	0.38
CCN1C(=O)C2(CCN(S(=O)(=O)c3c(C)nn(C)c3C)CC2)c2ccccc21	-2%	0.29
CC(C)[C@H]1CN(C(=O)COCc2ccccc2)C[C@@H]1N(C)C	-19%	2.18
O=C(c1cc2nc(C(F)F)cc(C(F)F)n2n1)N1CCCC1	0%	-0.02
Cc1ccc(Oc2ncccc2CNC(=O)[C@H](C)N2CCCC2=O)cn1	-7%	1.19
CN(C[C@H]1CCCOC1)c1nccn2ccnc12	-21%	2.76

SMILES	% Inhibition	Z score
CC1=CCN(S(=O)(=O)c2cccc(C(=O)Nc3cccnc3)c2)CC1	-14%	2.46
O=C(O)COc1ccccc1[C@H]1Nc2ccccc2C(=O)N1c1ccc2c(c1)OCO2	36%	-3.03
CCc1nnc(-c2nnc(NCCN(CC)CC)c3ccccc23)o1	-8%	0.89
CCc1noc2nc(C)nc(N3CCC[C@H](C(=O)NCCc4ccc(OC)c(OC)c4)C3)c12	1%	-0.1
C[C@](O)(CNC(=O)Nc1ccn(CCC#N)n1)C1CCCCC1	-9%	0.91
CCCN(Cc1ccsc1)S(=O)(=O)C1CC1	14%	-1.72
Cc1cc(CN(CC(=O)O)Cc2cccc(Br)c2)nn1C	-10%	1.72
COc1ccc(Cl)cc1C(=O)Nc1nnc(-c2cc(C)oc2C)o1	-10%	1.51
CCOc1cc(CNCc2ccccn2)ccc1OCc1ccccc1	-5%	0.89
CC1(C)[C@@H](NC(=O)N2CCC[C@@H]2CS(C)(=O)=O)C[C@H]1Oc1ccccc1	-3%	0.3
CCCc1sc(N(C(=O)CCc2ccccc2)c2ccc(OC)c(OC)c2)nc1-c1ccccc1	2%	-0.29
O=C(CN1C[C@@H]2CC[C@H]1CN(C(=O)C1CCC1)C2)NCc1ccccc1	3%	-0.52
NC(=O)c1csc(CN[C@H](c2ccc(F)c(Cl)c2)C2CC2)c1	-11%	1.5
C[C@@H](c1nc(Cc2cccs2)nn1-c1cccnc1)N1CCOCC1	7%	-1.19
CC[C@@H](c1ccccn1)N(C)C(=O)c1ccnnc1	-15%	1.97
C[C@@H](C(=O)N(C)Cc1cnc2ccccc2n1)N(C)C	-13%	2.41
COc1ccc(NC(=O)N2C[C@@H]3C[C@H](C2)c2ccc(NC(=O)COc4ccccc4)c(=O)n2C3)cc1	3%	-0.39
COc1ccc(CN(Cc2ccco2)C(=O)Nc2c(C)cccc2C)cc1OS(=O)(=O)c1ccc(F)cc1	-17%	1.54
COc1ccccc1-c1cc2nc(C)cc(Nc3ccccc3)n2n1	-13%	2.45
COC(=O)c1ccc(-c2nccn2C[C@H]2CCOC2)cc1	-17%	2.01
Cc1ncsc1C(=O)Oc1cncc(Cl)c1	0%	-0.02
NC(=NCCCc1ccccc1)NCCc1ccccn1	3%	-0.34
Cc1nc2c(-c3cccs3)cnn2c(C)c1C	-11%	1.35
C[C@]1(n2cc(CNc3ccc(Cl)cn3)cn2)CCS(=O)(=O)C1	-11%	1.54
Cc1csc(C(=O)NCCN2CCN(S(C)(=O)=O)CC2)c1	1%	-0.14
CC(CO)(CO)Nc1ncc(Cl)cn1	-8%	1.22
